From PubChem BioAssay AID652104 (National Center for Advancing Translational Sciences (NCATS), 2013)
“And” between values parts separate entries of the source, which are not always exact repeats. Equal values may be shown once. The whole screen tested about 410,000 compounds, of which about 7,200 (1.8%) were called active. Inconclusive means that the source gave no clear call. Such entries were picked first, then a sample of the others. Calls follow the shape of the dose curve; as a rule, active = well fitted activation curve with a large enough effect; inconclusive = small, poorly fitted or top-dose-only effect, or another doubt; inactive = no such curve, though single readings can be large or run the other way. A potency beside an inconclusive call is a rough fit, not a confirmed value.

Experiment: qHTS of TDP-43 Inhibitors; also: nearly all actives have a fitted effect of over 50% in size
Conditions: TDP-43 expressing yeast growth rescue, BacTiter-Glo, 24 h; series mostly up to 46.1 µM
Outline: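 Cell-based yeast growth screen: TDP-43 expression induced in galactose, inoculum OD600=0.02 after raffinose pregrowth to mid-log. Read-out BacTiter-Glo luminescence at 24 hr, 30 deg C; inhibition of toxicity seen as signal increase.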
Potency is read from the fitted curve at half-maximal effect; tags tell the direction and shape of the fitted curve.

Potency, active:
COc1ccc(-c2cc(C#N)nc(Cl)n2)cc1 3.98 µM
COc1ccc(C(=O)OCN2C(=O)c3ccccc3C2=O)cc1 10 µM
O=C(NCc1ccccc1)C1Cc2c(-c3ccc4c(c3)OCO4)ccnc2O1 (stereo not drawn) 35.5 µM
COc1ccccc1NC(=O)c1c(C)nn(-c2ccccc2)c1Cl 25.1 µM

Potency, inconclusive:
CCOc1ccc(CCNC(=O)CCC(=O)N2CCOc3ccccc32)cc1OCC 7.94 µM [activator, partial curve]
O=C1C2C(c3ccccc3)CC=CC2[C@H](c2ccc(C(F)(F)F)cc2)N1Cc1ccccc1 (stereo partly drawn) 14.1 µM [activator, single point]
Nc1ccccc1SC/C=C/CSc1ccccc1N 3.55 µM [activator, partial curve]
CCOC(=O)C1CCCN(S(=O)(=O)Cc2ccccc2Cl)C1 (stereo not drawn) 31.6 µM [activator, partial curve]
O=C(CC1CCCC1)OCn1nnc2ccccc2c1=O 35.5 µM [activator, single point]
CN(C(=O)c1ccco1)c1nc(-c2ccccc2)cs1 8.91 µM [activator, partial curve]
COc1cc(/C=N/NC(=O)C(Cc2c[nH]c3ccccc23)NC(=O)OCC(C)C)cc([N+](=O)[O-])c1OCc1ccccc1 (stereo not drawn) 22.4 µM [activator, partial curve]
CC(=O)Nc1ccc(-c2csc(NCc3ccccc3)n2)cc1 1.58 µM [activator, partial curve]
CNC(=O)CSc1ncnc2c1cnn2-c1ccccc1 14.1 µM [activator, single point]
CCc1nnc(NC(=O)CCC(=O)N2CCC(Cc3ccccc3)CC2)s1 11.2 µM [activator, single point]
COc1ccc(-c2cc(C)no2)cc1S(=O)(=O)N1CCN(c2ccc([N+](=O)[O-])cc2)CC1 1 µM [activator, full curve, poor fit]
Cc1ccc(Nc2nc(-c3cccnc3)cs2)cc1Cl 3.16 µM [activator, partial curve]
Cc1cc(C)c2c(-n3cccc3)c(C(=O)NNS(=O)(=O)c3ccc(F)cc3)sc2n1 7.08 µM [activator, partial curve]
O=C(NC(CC(=O)N1CCN(c2ccccc2)CC1)c1ccccc1)c1ccccc1 (stereo not drawn) 35.5 µM [activator, partial curve]
Cc1nc(N2N=C3/C(=C/c4ccc(F)cc4)CCCC3C2c2ccc(F)cc2)sc1C(=O)N(C)C (stereo not drawn) 22.4 µM [activator, single point]
CCc1c(C)nc(SCCOc2ccc(OC)cc2)[nH]c1=O 5.01 µM [activator, full curve]
O=C(CSc1nnc(-c2ccccc2)o1)N1CCCc2ccccc21 35.5 µM [activator, partial curve]
COc1ccc2oc(=O)c(C(=O)Nc3ccccc3C)cc2c1 5.62 µM [activator, partial curve]
COc1ccc(CCNC(=O)c2cccc3c2C(=O)N(C2CCCCC2)C3)cc1OC 35.5 µM [activator, single point]
C=CCCC(=O)Nc1nc(C)c(-c2csc(Nc3ccc(Cl)cc3)n2)s1 35.5 µM [activator, single point]
Cc1ccc(NC(=O)CCC(=O)N2CCOc3ccccc32)c(Cl)c1 7.08 µM [activator, partial curve] and 14.1 µM [activator, partial curve]
Cc1cc(-c2nnc3n2N=C(c2ccc(-c4ccccc4)cc2)CS3)n[nH]1 0.562 µM [activator, full curve]
Cc1ccc(C)c(OCC(=O)Nc2cccc(C(=O)O)c2)c1C 11.2 µM [activator, single point]
CC(C)(C)c1ccc(NC(=O)CSc2nnc3scc(-c4ccccc4)n23)cc1 25.1 µM [activator, partial curve]
O=C(Nc1ccccc1N1CCCCC1)c1ncoc1-c1cccc(F)c1 12.6 µM [activator, partial curve]
COc1ccc2[nH]c(C(=O)N3CCC(CO)(Cc4cccc(C(F)(F)F)c4)CC3)c(C)c2c1 22.4 µM [activator, single point]
COC(=O)c1ccc(N=NN2CCOCC2)cc1 22.4 µM [activator, single point]
O=S(=O)(c1cc(Br)c(Cl)s1)N1CCCC1 3.98 µM [activator, full curve]
O=C(Cc1cccs1)NCCn1ccc2ccccc21 7.94 µM [activator, full curve, poor fit]
COc1ccc(C(=O)NCC23C=CC(O2)C2C(=O)N(Cc4ccccc4)C(=O)C23)cc1 (stereo not drawn) 10 µM [activator, partial curve]

Potency, inactive:
COc1ccc(Cc2c(-c3ccccc3)nc3ccc(Cl)cn23)c(C)c1
COc1cccc(NC(=O)CN(c2cccc(C(F)(F)F)c2)S(C)(=O)=O)c1
CN(C)Cc1csc(Nc2ccc(C(F)(F)F)cn2)n1
CCOc1ccccc1CNC(=O)c1cnc2sc(N3CCC(C)CC3)nn2c1=O
CC(=O)N1CCN(C(=O)c2ccc3oc(CCCc4ccccc4)nc3c2)CC1
COc1ccc(C2Nc3ccccc3-c3nnc(SC)nc3O2)cc1C (stereo not drawn)
CCOC(=O)c1cc(C#N)c(Oc2cccc(C(F)(F)F)c2)nc1-c1ccccc1
O=C(CCCOc1ccc(Cl)cc1Cl)NC(Cc1ccccc1)C(=O)O (stereo not drawn)
O=C(Nc1ccc2nc(SCC(=O)N3CCCc4ccccc43)sc2c1)c1ccc(F)cc1
